Test results taken from PubChem BioAssay AID504339 (National Center for Advancing Translational Sciences (NCATS), 2011).
Where “and” joins values, the source holds several entries; their conditions need not be identical. Identical values can stand only once. Hit rate of the full screen: of about 390,000 compounds, about 17,000 (4.4%) were called active. This list was built around the results that the source calls inconclusive (neither active nor inactive); the mix of calls is not that of the screen. The call rests on the fitted dose curve; in most records, active means well fitted inhibition curve with a large enough effect; inconclusive means small, poorly fitted or top-dose-only effect; inactive means no such curve, though single readings can be large or run the other way. Potencies of inconclusive entries are doubtful fits and often do not repeat.

target: Lysine-specific demethylase 4A (Homo sapiens) (UniProt O75164); assay: qHTS Assay for Inhibitors of JMJD2A-Tudor Domain; settings: AlphaScreen JMJD2A-Tudor / H3K4me3 peptide binding; series mostly up to 114 µM; further: nearly all actives have a fitted effect of over 50% in size
On the % scale 0 is the no-effect control and ±100 the full control effect; potency means the concentration at half of the fitted maximal effect; tags describe the fitted curve by direction and shape.

Sequence of UniProt O75164 (O75164 whole entry, looked up, the tested form may be a part): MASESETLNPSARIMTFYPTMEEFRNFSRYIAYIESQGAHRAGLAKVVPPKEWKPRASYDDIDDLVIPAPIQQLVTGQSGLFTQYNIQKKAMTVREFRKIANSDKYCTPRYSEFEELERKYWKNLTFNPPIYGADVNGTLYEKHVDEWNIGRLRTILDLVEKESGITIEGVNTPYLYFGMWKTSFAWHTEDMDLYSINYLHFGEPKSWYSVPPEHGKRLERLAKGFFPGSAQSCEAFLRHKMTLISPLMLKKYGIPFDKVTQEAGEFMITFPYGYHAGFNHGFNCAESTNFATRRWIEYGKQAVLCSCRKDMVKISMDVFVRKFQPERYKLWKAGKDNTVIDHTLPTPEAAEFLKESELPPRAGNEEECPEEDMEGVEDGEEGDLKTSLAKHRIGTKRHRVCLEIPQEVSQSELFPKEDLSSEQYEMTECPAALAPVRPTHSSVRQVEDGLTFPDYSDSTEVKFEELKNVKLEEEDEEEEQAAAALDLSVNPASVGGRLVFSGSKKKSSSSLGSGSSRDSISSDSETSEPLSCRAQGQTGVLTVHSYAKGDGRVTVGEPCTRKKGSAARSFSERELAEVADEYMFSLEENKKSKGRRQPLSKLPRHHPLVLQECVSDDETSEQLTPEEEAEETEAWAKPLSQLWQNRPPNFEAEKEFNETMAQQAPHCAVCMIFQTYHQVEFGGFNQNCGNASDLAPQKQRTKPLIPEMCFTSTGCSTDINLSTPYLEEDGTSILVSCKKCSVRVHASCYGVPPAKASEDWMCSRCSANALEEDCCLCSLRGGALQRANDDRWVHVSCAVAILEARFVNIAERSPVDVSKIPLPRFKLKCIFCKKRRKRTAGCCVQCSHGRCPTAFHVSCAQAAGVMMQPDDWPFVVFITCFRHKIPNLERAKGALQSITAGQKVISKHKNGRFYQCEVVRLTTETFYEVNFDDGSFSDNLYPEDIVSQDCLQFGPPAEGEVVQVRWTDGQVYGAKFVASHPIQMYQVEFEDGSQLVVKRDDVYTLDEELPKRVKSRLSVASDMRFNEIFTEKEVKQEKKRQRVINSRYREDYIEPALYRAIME

Row | Structure (SMILES) | Potency | activity change, negative = inhibition
1 | CCCCCCNC(=O)CC(NS(=O)(=O)c1ccc(NC(C)=O)cc1)C(C)C (centres undefined) | inactive | 
2 | COc1ccc(OCc2cc(C(=O)N3CCCC(O)C3)no2)c2ccccc12 (centres undefined) | inconclusive: 79.4 µM [inhibitor, partial curve] | 
3 | O=C(N/N=C/c1ccccc1)c1[nH]ncc1Br |  | inactive: -16.5% [at 11.4 µM]
4 | COc1ccc(Nc2nc(NCc3ccco3)nc(N/N=C/c3ccccc3)n2)cc1 | inconclusive: 44.7 µM [inhibitor, partial curve] | 
5 | CC(C)C(=O)NC(=S)Nc1sc2c(c1C(N)=O)CCCC2 | inconclusive: 70.8 µM [inhibitor, single point] | 
6 | Cc1csc2nc(O)c(C(=O)NCC3CCCO3)c(=O)n12 (centres undefined) | inconclusive: 28.2 µM [inhibitor, single point] | 
7 | O=S(=O)(c1cccc2cnccc12)N1CCNCC1 | inconclusive: 89.1 µM [inhibitor, single point] | 
8 | CCN(CC)CCCn1c2c(c(SCC(=O)Nc3cccc(C)c3C)nc1=O)CCC2 | inactive | 
9 | Cn1c2ccccc2c2cnn(CC(=O)N3CCN(c4cccc(C(F)(F)F)c4)CC3)c(=O)c21 | inactive | 
10 | COc1ccc(C2Nc3cccc4cccc(c34)N2)cc1Br | active: 39.8 µM | 
11 | Cc1[nH]c2ccccc2c1C1=CC(=O)C=CC1=O | active: 3.16 µM | 
12 | CCOc1ccc(C(=O)Nc2cccc(NC(=O)c3ccc(C(C)(C)C)cc3)c2)cc1Br | inactive | 
13 | CCc1cccc(NC(=O)Cn2c(=O)oc3cc(S(=O)(=O)N4CCOCC4)ccc32)c1 | inactive | 
14 | CC(C)(C)OC(=O)[C@H]1[C@H](c2ccc([N+](=O)[O-])cc2)C2(C(=O)c3ccccc3C2=O)C2c3ccccc3C=NN21 (some centres undefined) | inconclusive: 39.8 µM [inhibitor, partial curve] | 
15 | CCOc1ccc(NC(=O)c2ccccn2)cc1 | active: 15.8 µM | 
16 | COC(=O)c1sc(=S)n(-c2ccccc2)c1N | inconclusive: 56.2 µM [inhibitor, partial curve] | 
17 | Cn1c(CC(=O)Nc2ccccc2F)nnc1SCC(=O)Nc1ccccc1Br | inactive | 
18 | Cc1nn(-c2ccccc2)c2nc(-c3ccncc3)cc(C(=O)NCc3ccco3)c12 | inconclusive: 12.6 µM [inhibitor, partial curve] | 
19 | COc1cccc(NCCC(=O)c2cccc([N+](=O)[O-])c2)c1 | inconclusive: 22.4 µM [inhibitor, full curve] | 
20 | CC(C)(C)c1ccc(OCC(=O)NNC(=S)NC(=O)c2ccccc2[N+](=O)[O-])c(Br)c1 | inconclusive: 56.2 µM [inhibitor, partial curve] | 
21 | CCOC(=O)c1cc2c(=O)c3cc(C)ccc3oc2nc1C | inconclusive: 14.1 µM [inhibitor, partial curve, poor fit] | 
22 | COc1ccc(-c2nnc3ccc(SC(C(C)=O)C(C)=O)nn23)cc1OC | active: 20 µM | 
23 | CNC(=O)c1[nH]cnc1C(=O)Nc1ccccc1OC | inconclusive: 79.4 µM [inhibitor, partial curve] | 

Row | Structure (SMILES) | Potency | activity change, negative = inhibition
24 | Cc1ccc(C)n1-c1ccc(N2CCOCC2)c([N+](=O)[O-])c1 | inconclusive: 56.2 µM [inhibitor, partial curve] | 
25 | CCOc1ccccc1NC(=O)C(NCCN(C)C)c1ccccc1 (centres undefined) | active: 22.4 µM | 
26 | COC(=O)[C@H](C)NC(=O)NCCC1=CCCCC1 | active: 70.8 µM | 
27 | COCCn1c(=O)[nH]c(=O)c2c1nc(-c1cc(Br)c3c(c1)OCO3)n2Cc1ccccc1 | inconclusive: 79.4 µM [inhibitor, partial curve] | 
28 | CCOC(=O)c1c(NC(=O)c2c(C(=O)O)cccc2[N+](=O)[O-])sc2c1CCCC2 | inconclusive: 79.4 µM [inhibitor, single point] | 
29 | CC(C)CC1Nc2ncnc(N3CCCCC3)c2N(Cc2ccccc2)C1=O (centres undefined) | inconclusive: 44.7 µM [inhibitor, full curve, poor fit] | 
30 | CCOc1ccc2c(c1)nc(SCC(=O)c1cccs1)n2C | active: 39.8 µM | 
31 | Cc1cc(C)c(/C=C/c2onc(C)c2S(=O)(=O)N2CCC(C(=O)NCc3ccccc3Cl)CC2)c(C)c1 | inactive | 
32 | CN(c1ccccc1)c1nc(N)c([N+](=O)[O-])c(N2CCCCCC2)n1 | inconclusive: 50.1 µM [inhibitor, partial curve] | 
33 | CC1CCN(CCCCOc2ccc([N+](=O)[O-])cc2)CC1 | active: 79.4 µM | 
34 | CC(=O)c1cccc(NC(=O)c2ccc(NC(=O)CC3SC(N4CCCCC4)=NC3=O)cc2)c1 (centres undefined) | inactive | 
35 | Cc1cc(C)c2c(=O)cc(C(=O)Nc3c(C)n(C)n(-c4ccccc4)c3=O)oc2c1 | inactive | 
36 | CN(C)CCCNC(=O)C1(O)c2cc(Br)ccc2NC(=O)N1c1c(F)cccc1F (centres undefined) | inactive | 
37 | O=C(OCC(=O)N1CCN(c2ccccc2)CC1)c1ccc2ncsc2c1 | inconclusive: 63.1 µM [inhibitor, partial curve, poor fit] | 
38 | NCCCNC(=S)NCCCN(Cc1ccc(Cl)cc1)c1ccc(Br)cn1 | inconclusive: 56.2 µM [inhibitor, partial curve] | 
39 | N#CCSc1nnc(-c2ccc(S(=O)(=O)N3CCOCC3)cc2)n1CC1CCCO1 (centres undefined) | active: 89.1 µM | 
40 | COc1ccc(C(CCN2CCCC(C)C2)c2c(OC)cc(OC)c3c(-c4ccccc4)cc(=O)oc23)cc1 (centres undefined) | inconclusive: 50.1 µM [inhibitor, partial curve] and inconclusive: 31.6 µM [inhibitor, partial curve] | 
41 | CC(CC(=O)NC1CCCCC1)S(=O)(=O)c1ccc2c(c1)NC(=O)CO2 (centres undefined) | inactive | 
42 | CCN1CCN(c2nc3sc4c(c3c3ncnn23)CC(C)CC4)CC1 (centres undefined) | inconclusive: 89.1 µM [inhibitor, single point] | 
43 | CCCCNc1nc(Oc2ccc(=O)n(C)n2)nc(N2CCOCC2)n1 | inactive | 
44 | CC(C)(C)N=Cc1c(O)ccc2oc3c(c12)CCCC3 | inconclusive: 89.1 µM [inhibitor, single point] | 
45 | COc1ccc(OCc2ccc(/C=N\NC(=O)c3sccc3C)o2)cc1 | inactive | 
46 | CCOc1ccc(-n2c(=S)sc3c(=O)n(-c4ccc(F)cc4)c(SCC(=O)O)nc32)cc1 | inactive | 

Row | Structure (SMILES) | Potency | activity change, negative = inhibition
47 | S=C(c1ccc(OCc2ccccc2)cc1)N1CCCC1 | inactive | 
48 | O=C(CSc1nc(NS(=O)(=O)c2ccccc2)cc(=O)[nH]1)Nc1ccccc1C(F)(F)F | inconclusive: 31.6 µM [inhibitor, single point] | 
49 | FC(F)Oc1ccc(/C=N/n2c(Cc3ccc(Br)cc3)n[nH]c2=S)cc1 | inconclusive: 50.1 µM [inhibitor, partial curve] | 
50 | O=C(C[C@H]1C[C@H](C(=O)N2CCCCC2)[C@@]2(CCc3ccccc3)c3[nH]c4cc(-c5ccco5)ccc4c3CCN2C1=O)NCCC1=CCCCC1 | inconclusive: 63.1 µM [inhibitor, partial curve, poor fit] | 
51 | CCCCOc1ccccc1-c1ccccc1CN1[C@@H](C(C)C)COCCS1(=O)=O | inconclusive: 89.1 µM [inhibitor, partial curve] | 
52 | CC(=O)CCN1CCOCC1 | inactive | 
53 | O=c1[nH]c(CN2CCN(c3ccccc3O)CC2)nc2scc(-c3ccccc3Cl)c12 | inconclusive: 10 µM [inhibitor, full curve] | 
54 | Oc1ccc(/C=N/N2CCCCC2)cc1O | inconclusive: 25.1 µM [inhibitor, full curve] | 
55 | O=C(c1ccccc1)c1ccc2nc(-c3ccco3)c(-c3ccco3)nc2c1 | active: 12.6 µM | 
56 | CCCCCN1C/C=C\C(c2ccc(OC)cc2)N(Cc2ccc(F)cc2)C(=O)C1 (centres undefined) | inconclusive: 39.8 µM [inhibitor, partial curve] | 
57 | Clc1ccc(CN2CCC(CNc3ncnc4onc(-c5ccc(Cl)cc5)c34)CC2)cc1 | inconclusive: 7.94 µM [inhibitor, full curve] | 
58 | Fc1ccc(NCc2nnc(SCc3nnc(-c4ccccc4)o3)n2Cc2ccccc2)cc1 | inconclusive: 56.2 µM [inhibitor, partial curve] | 
59 | CN(C)/C=C(\C=O)c1ncc(C(F)(F)F)cc1Cl | inconclusive: 44.7 µM [inhibitor, partial curve, poor fit] | 
60 | O=C(/C=C/c1ccco1)NC(=S)Nc1cccc([N+](=O)[O-])c1 | inconclusive: 56.2 µM [inhibitor, partial curve] | 
61 | Oc1ccccc1Nc1nc(NCc2ccco2)c2ccccc2n1 | inconclusive: 44.7 µM [inhibitor, partial curve] | 
62 | CCCCOc1c(Br)cc(/C=C2\N=C(C)OC2=O)cc1OCC | inactive | 
63 | CCCN(CC(=O)Nc1ccccc1C)C(=O)c1ccc(N2CCCC2)c([N+](=O)[O-])c1 | inconclusive: 56.2 µM [inhibitor, partial curve] | 
64 | Cc1ccc2c(c1)c(/C=C/c1cc[n+](C)cc1)c(C)n2C | inconclusive: 28.2 µM [inhibitor, partial curve] | 
65 | COc1cc(/C(C)=N/NC(=O)c2cccc(S(=O)(=O)N3CCCC3)c2)cc(OC)c1OC | inconclusive: 35.5 µM [inhibitor, partial curve] | 
66 | CN(C)c1ccc(NC(=O)COC(=O)CNC(=O)c2cccs2)cc1 | inconclusive: 44.7 µM [inhibitor, partial curve] | 
67 | Cc1ccc(C(=O)NCCCc2ccccc2)c(C)c1 | inconclusive: 28.2 µM [inhibitor, partial curve] | 
68 | CN1CCN(C(=O)CCN2C(=O)/C(=C\c3ccc(Cl)cc3Cl)SC2=S)CC1 | active: 15.8 µM | 
69 | Cc1ccc2cccc(NC(=S)NC(=O)c3ccnn3C)c2n1 | inconclusive: 89.1 µM [inhibitor, partial curve] | 
